Source: the RNAGym collection of RNA variant scans (doi:10.1073/pnas.2313332121)
Variants at the background level are over-represented here.

B1: TPR 5TU (parent)
chain: GGAUCUUCUCGAUCUAACAAAAAAGACAAAUCUGCCACAAAGCUUGAGAGCAUCUUCGGAUGCAGAGGCGGCAGCCUUCGGUGGCGCGAUAGCGCCAACGUUCUCAACUAUGACACGCAAAACGCGUGCUCCGUUGAAUGGAGUUUAUCAUG

Variants of: B1
Assay: polymerase ribozyme fitness, log enrichment relative to wild type (log ratio); higher = more active; in vitro selection for triplet polymerase activity
Summary of the method: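 Mutant libraries of both subunits of a heterodimeric triplet polymerase ribozyme were PCR-built, transcribed, and selected once in triplicate, with frozen incubation at −7 °C and capture of gel-excised extended constructs on streptavidin beads before RT-PCR. Illumina sequencing of input and output libraries was filtered to genotypes with ≥10 input reads and ≥1 read per output. Fitness is the logarithm of genotype enrichment over wild-type enrichment, using inverse-variance-weighted replicate averages. The logarithm is base 2.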

With GGAUCUUCUCGAUCUAACAAAAAAGACAAAUCUGCCACAAAACUUGAGAGCAUCUUCGGAUGCAGAGGCGGCAGCCAUCGGUUGCGCGAUAGCGCCAACGUUCUCAACUAUGACACGCAAACCGCGUGCUCCGUUGAAUGGAGUUUAUCAUG [G42A U77A G83U A122C] as the variant, how does the “polymerase ribozyme fitness (log ratio)” value read?
The value was ≤ -4.2.

Which “polymerase ribozyme fitness (log ratio)” value does the source give for GGAUCUUCUCGAUCUAACAAAAAAGACAAAUCUGCCACAAAACUUGAGAGCAUCUUCGGAUGCAGAGGCGGCAGCCUACCGUGGCGCCAUGACGCCAACGUUCUCUACUAUGACACGUAAAACGCAUGCUCCGUUGAAUGGAGUUUAUCAUG [G42A U78A G80C G88C A91G G92A A106U C118U G126A] here?
Its value is ≤ -4.2.

Which “polymerase ribozyme fitness (log ratio)” value does the source give for GGAUCUUCUCGAUCUAACAAAAAAGACAAAUCUGCCACAAAACUUGAGAGCAUCUUCGGAUGCAGAGGCGGCAGCCUGCGGUGGCGCGAUAGCGCCAACGUUCUCAACUAUGACAAGCAAAACGGGUGCUCCGUUGAAUGGAGUUUAUCAUG [G42A U78G C116A C125G] here?
Its value is ≤ -4.2.

For GGAUCUUCUCGAUCUAACAAAAAAGACAAAUCUGCCACAAAACUUGAGAGCAUCUUCGGAUGCAGAGGCGGCAGCCUUCGGUGGCGCGAUAGCGCCAACGUUCUCAACUAUGACACGCAAAACGCGUGCUCCGUUGAAUGGAGUUUACCAUG [G42A U148C], which “polymerase ribozyme fitness (log ratio)” value is on record?
Its value is ≤ -4.2.

For GGAUCUUCUCGAUCUAACAAAAAAGACAAAUCUGCCACAAACCUUGCGAGCAUCUUCGGAUGCAGAGGCGGCAGCCUUCGGUGGCGCGAUAGGGCCAACGUUCUCAACUAUGACACGCAAAACGCGUGCUCCGUUGAAUCGAGUUUAUCAUG [G42C A47C C93G G140C], which “polymerase ribozyme fitness (log ratio)” value is on record?
Its value is ≤ -4.2.

For GGAUCUUCUCGAUCUAACAAAAAAGACAAAUCUGCCACAAACCUUGCGAGCAACUUCGGAUGCAGAGGCGGCAGCCUUCGGCGACGCGAUAGCGCCAACGUUCUCAACUAUGACACGCAAAGCGCGUGCUCCGUUGAUUGGACUUUAUCAUG [G42C A47C U53A U82C G84A A122G A138U G143C], which “polymerase ribozyme fitness (log ratio)” value is on record?
The value was ≤ -4.2.

Which “polymerase ribozyme fitness (log ratio)” value does the source give for GGAUCUUCUCGAUCUAACAAAAAAGACAAAUCUGCCACAAACCUUGAGGGCAUGUUCGGAUGCAGAGGCGGCAGCCUUCGGUCGUGCGAUAGCGCAAACGUUCUCAACUAUGACACGCAAAACGCGUGCUCCGUUGAAUGGAGUUUAUCAUG [G42C A49G C54G G83C C85U C96A] here?
Its value is ≤ -4.2.

For GGAUCUUCUCGAUCUAACAAAAAAGACAAAUCUGCCACAAACCUUGAGAGCGUGUUCGGAUGCAGAGGCGGCAGCCUUCGGUGGCGGGAUAGCGCCAACGUUCUCAACUAUGACACGCAAAACGCGUGCUCCGUUGAGUGGAGUUUAUCAUG [G42C A52G C54G C87G A138G], which “polymerase ribozyme fitness (log ratio)” value is on record?
The value was ≤ -4.2.

Which “polymerase ribozyme fitness (log ratio)” value does the source give for GGAUCUUCUCGAUCUAACAAAAAAGACAAAUCUGCCACAAACCUUGAGAGCAUCUUCGGGUGCAGAGGCGGCAGGCUUCGGUGGCGCGAUAGCGCCAACGUUCUUAACUAUGACACGCAAAGCGCGUGCUCCGUUGAAUGGAGUUUAUCAUG [G42C A60G C75G C105U A122G] here?
Its value is -4.18.

For GGAUCUUCUCGAUCUAACAAAAAAGACAAAUCUGCCACAAACCUUGAGAGCAUCUUCGGGUGCAGAGGCAGCAGCCUUCGGUGGCGCGAUUGCGCCAACGUUCUCAACUAUGACACGCAAAAAGCGUGCUCCGCUGAAUGGAGUUUAUCAUG [G42C A60G G70A A91U C123A U134C], which “polymerase ribozyme fitness (log ratio)” value is on record?
The value was ≤ -4.2.

With GGAUCUUCUCGAUCUAACAAAAAAGACAAAUCUGCCACAAACCUUGAGAGCAUCUUCGGUUGCAGAGGCGGCAGCCUUCGGUGGCGCGAUAUCGCCAACGUUCUCAACUAUGACACGCUAAACGAGUGCUCCGUUGAAUGGAGUUUAUCAUG [G42C A60U G92U A119U C125A] as the variant, how does the “polymerase ribozyme fitness (log ratio)” value read?
The value was ≤ -4.2.

For GGAUCUUCUCGAUCUAACAAAAAAGACAAAUCUGCCACAAACGUUGAGAGCAUCUACGUAUGCAGAGGCGGCAGCCUUCGGUGGUGCGAUAGCGCCAACGUUCUCAACUAUGACACGCAAAACGAGCGCUCCGUUGAAUGGAGUUUAUCAUG [G42C C43G U56A G59U C85U C125A U127C], which “polymerase ribozyme fitness (log ratio)” value is on record?
Its value is ≤ -4.2.

With GGAUCUUCUCGAUCUAACAAAAAAGACAAAUCUGCCACAAACUUUGAGAGCAUCUUCGGAUGCAGAGGCGGCAGCCUUCGGUGGCGCGAUAGCGCCAACGUUCUCAACUAUGACACGCAAAACGCGUGCUCCGUUGAAUGGAGUUUAUCAUG [G42C C43U] as the variant, how does the “polymerase ribozyme fitness (log ratio)” value read?
Its value is ≤ -4.2.

Which “polymerase ribozyme fitness (log ratio)” value does the source give for GGAUCUUCUCGAUCUAACAAAAAAGACAAAUCUGCCACAAACCUUGAGAGCAUCUUCGGAUGAAGAGGCGGCAGCCUUCGGUGGAGCGAUAGCGUCAACGUUCUCAACUAUGACACGCAAGACGCGUGCUCCGUUGAAUGGAGCUUAUCAUG [G42C C63A C85A C95U A121G U144C] here?
Its value is ≤ -4.2.

For GGAUCUUCUCGAUCUAACAAAAAAGACAAAUCUGCCACAAACCUUGAGAGCAUCUUCGGAUGCAGAGGCGGUAGCCUUCGGUGGCGCGAUAGCGCCAACGUUCUCAACUAUGACACGCAAAACGCGUGCUCCGUUGAAUGGAGUUUAUCAUG [G42C C72U], which “polymerase ribozyme fitness (log ratio)” value is on record?
Its value is ≤ -4.2.

With GGAUCUUCUCGAUCUAACAAAAAAGACAAAUCUGCCACAAACCUUGAGAGCAUCUUCGGAUGCAGAGGCGGCAGCGUUCGGUGGCGCGAUAGCGCCAACGUUCUCAACUAUGACACGCAAAACGCGUGCUCCGUUGAAUGGAGUUUAUCAUG [G42C C76G] as the variant, how does the “polymerase ribozyme fitness (log ratio)” value read?
Its value is ≤ -4.2.

Which “polymerase ribozyme fitness (log ratio)” value does the source give for GGAUCUUCUCGAUCUAACAAAAAAGACAAAUCUGCCACAAACCUUGAGAGCAUCUUCGGAUGCAGAGGCGGCAGCUUUCGGUGGCGCGAUAGCGCCAAGGUUCUCAACUAUGACACGCAAAGCGCGUGCUCCGUUGAAUGCAGUUUAUCAUG [G42C C76U C99G A122G G141C] here?
Its value is ≤ -4.2.

For GGAUCUUCUCGAUCUAACAAAAAAGACAAAUCUGCCACAAACCUUGAGAGCAUCUUCGGAUGCAGAGGCGGCAGCCUUCGGUGGCGGGAUAGCGCCAACGUUCUCAACUAUGCCACGCAAAACGCGUGCUCCAUUGAAUGGAGUUUAUCAUG [G42C C87G A113C G133A], which “polymerase ribozyme fitness (log ratio)” value is on record?
Its value is ≤ -4.2.

For GGAUCUUCUCGAUCUAACAAAAAAGACAAAUCUGCCACAAACCUUGAGAGCAUCUUCGGAUGCAGAGGCGGCAGCCUUCGGUGGCGUGAUAGCGCCAACGUUCUCAACUAUGACACGCAAAACGCGUGCUCCGUUGAAUGGAGUUUGUCAUG [G42C C87U A147G], which “polymerase ribozyme fitness (log ratio)” value is on record?
The value was ≤ -4.2.
